From PubChem BioAssay AID1745846 (National Center for Advancing Translational Sciences (NCATS), 2022)
In all, about 1,400 compounds went through this assay and about 30 (2%) were called active. Inconclusive means that the source gave no clear call. Such entries were picked first, then a sample of the others. Calls follow the shape of the dose curve; as a rule, active = well fitted inhibition curve with a large enough effect; inconclusive = small, poorly fitted or top-dose-only effect; inactive = flat fitted curve, though single readings scatter. Potencies beside an inconclusive call are fits to weak or partial responses and may not hold up.

assay: Firefly Luciferase Counterscreen for Inhibitors of ATXN expression; conditions: luminescence; series mostly up to 57.5 µM; activity change, negative = inhibition: at the top concentration
How it was run: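 Recombinant firefly luciferase at 10 nM final in 50 mM Tris pH 7.5, 10 mM MgCl2, 0.05% BSA, 0.01% Tween20 with substrate; compounds up to 57 uM final, 10 min room temperature, end-point luminescence. Buffer-only wells define 100% inhibition.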
% is scaled to controls: 0 for no effect and ±100 for the full control effect; potency is read from the fitted curve at half-maximal effect; tags tell the direction and shape of the fitted curve.

| Structure (SMILES) | Potency | activity change, negative = inhibition |
| --- | --- | --- |
| O=c1oc2ccccc2c(O)c1Cc1cc(Cl)c2cccnc2c1O | inconclusive: 22.4 µM [inhibitor, partial curve] | – |
| O=C(Nc1cccc2cccnc12)c1csc(COCCO)n1 | inconclusive: 28.2 µM [inhibitor, partial curve, poor fit] | – |
| Cc1ccc(SC2=C(N(C)C)C(=O)c3ccccc3C2=O)cc1 | inconclusive: 15.8 µM [inhibitor, single point] | – |
| O=C1/C(=C\c2cc(Cl)c(O)c(Cl)c2)SC(=S)N1Cc1ccccc1 | inconclusive: 28.2 µM [inhibitor, single point] | – |
| Cc1nc2c(OCc3ccc(C(F)(F)F)cc3)cccn2c1N(C)C(=O)CCC1CCCC1 | – | inactive: -4.05% |
| O=C(Cc1coc2cc3c(cc12)CCC3)OCC(=O)N1CCCC1=O | inconclusive: 25.1 µM [inhibitor, partial curve, poor fit] | – |
| CCOc1ccc(NS(=O)(=O)c2ccc(C(=O)NNC(=O)c3ccccc3O)cc2)cc1 | inconclusive: 25.1 µM [inhibitor, partial curve, poor fit] | – |
| CC(=O)Nc1ccc(CNc2nc3cc(-c4ccccc4C)sc3c(=O)n2C)cc1 | inconclusive: 28.2 µM [inhibitor, partial curve, poor fit] | – |
| Cc1cc(C(=O)N/N=C/c2cc(Br)cc(Br)c2OC(=O)c2cccc(F)c2)n[nH]1 | – | inactive: -1.31% |
| O=C(CN1CCCC1)N/N=C/c1c(O)ccc2ccccc12 | – | inactive: -4.95% |
| O=C(CSc1ccc2ccccc2n1)N/N=C/c1ccccc1O | inconclusive: 25.1 µM [inhibitor, partial curve] | – |
| c1cc2c(cc1-c1cnc3n1CCC3)OCCO2 | inconclusive: 25.1 µM [inhibitor, partial curve, poor fit] | – |
| O=C(Cc1ccc(-c2ccccc2)cc1)Nc1ccccn1 | inconclusive: 22.4 µM [inhibitor, partial curve] | – |
| COc1ccc(-c2ccc(C(c3c(C)[nH][nH]c3=O)c3c(C)[nH][nH]c3=O)o2)c([N+](=O)[O-])c1 | inconclusive: 22.4 µM [inhibitor, single point] | – |
| CCC(c1nnnn1C1CCCC1)N(Cc1cccs1)Cc1cc2cc(C)ccc2[nH]c1=O (stereo unspecified) | – | inactive: 2.95% |
| Cc1c(CC(=O)NCCCC(=O)O)c(=O)oc2cc3c(cc12)CCC(C)(C)O3 | inconclusive: 25.1 µM [inhibitor, single point] | – |
| O=C1C(Cl)=C(N2CCC(C(=O)O)CC2)C(=O)c2ccccc21 | inconclusive: 25.1 µM [inhibitor, single point] | – |
| COc1ccc(C(=O)Nn2c(SCC(=O)c3ccccc3)nc3ccccc3c2=O)cc1 | active: 7.08 µM | – |
| CC(=O)NC(c1ccccc1)c1cc(Cl)c2cccnc2c1O (stereo unspecified) | – | inactive: -12.7% |
| O=C(N/N=C/c1c(O)ccc2ccccc12)c1cccnc1 | inconclusive: 14.1 µM [inhibitor, partial curve] | – |
| COC(=O)c1ccc(/C=C2/SC(=S)N(CCCC(=O)Nc3ccccn3)C2=O)cc1 | inconclusive: 14.1 µM [inhibitor, partial curve] | – |

| Structure (SMILES) | Potency | activity change, negative = inhibition |
| --- | --- | --- |
| O=C(NCc1ccco1)c1ccc(-c2cccc(Cl)c2)o1 | inconclusive: 11.2 µM [inhibitor, partial curve, poor fit] | – |
| Cc1ccnc(NC(=S)N2CCN(c3cccc(C(F)(F)F)c3)CC2)c1 | inconclusive: 6.31 µM [inhibitor, partial curve] | – |
| Cc1ccc(S(=O)(=O)Nc2ccc(O)c3cccnc23)cc1 | – | inactive: -7.92% |
| CCC1=C(CC2NCCc3ccccc32)CC2c3cc(OC)c(OC)cc3CCN2C1 (stereo unspecified) | – | inactive: -1.08% |
| COC(=O)c1c(NC(=O)c2ccc([N+](=O)[O-])o2)sc2c1CCN(C(C)C)C2 | – | inactive: 0.611% |
| NS(=O)(=O)c1ccc(NC(=O)COC(=O)c2c3c(nc4ccccc24)/C(=C\c2ccc4c(c2)OCO4)CCC3)cc1 | inconclusive: 22.4 µM [inhibitor, single point] | – |
| COc1ccc(/C=C/C(=O)c2ccc3c4c(cccc24)CC3)cc1OC | inconclusive: 12.6 µM [inhibitor, partial curve, poor fit] | – |
| Cc1ccc(NS(=O)(=O)c2ccc(C(=O)NNC(=O)c3ccccc3O)cc2)cc1 | inconclusive: 28.2 µM [inhibitor, partial curve, poor fit] | – |
| O=C(N/N=C/c1ccccc1O)c1ccncc1 | inconclusive: 25.1 µM [inhibitor, single point] | – |
| COc1cc(C#Cc2c(-c3cncn3C)n(C)c3ccc(-c4ccc(OC)nc4)cc23)cc(OC)c1 | inconclusive: 15.8 µM [inhibitor, partial curve, poor fit] | – |
| Cc1cc(C)cc(NC(=O)CSc2nc3nc(C)cc(C)c3c(=O)[nH]2)c1 | inconclusive: 12.6 µM [inhibitor, partial curve, poor fit] | – |
| NC(=O)C1CCN(C2=C(Cl)C(=O)c3ccccc3C2=O)CC1 | inconclusive: 14.1 µM [inhibitor, partial curve] | – |
| CCCCOC(=O)/C=C\C(=O)NC(N)=O | – | inactive: 1.17% |
| O=C(CCCN1C(=O)S/C(=C\c2ccccc2)C1=O)NNC(=O)c1ccccc1O | inconclusive: 14.1 µM [inhibitor, partial curve, poor fit] | – |
| COc1cc(N)ccc1Nc1c2ccccc2nc2ccccc12 | inconclusive: 28.2 µM [inhibitor, single point] | – |
| Cc1ccc(N=Nc2ccc(O)c3ncccc23)cc1 | – | inactive: 3.5% |
| O=C(Nc1cccc(Br)c1)Oc1cccc2cccnc12 | inconclusive: 28.2 µM [inhibitor, partial curve, poor fit] | – |
| Cc1ccccc1OCC(=O)N/N=C/c1cccc2cccnc12 | inconclusive: 28.2 µM [inhibitor, partial curve, poor fit] | – |
| Cc1ccn2c(Nc3ccccc3C)c(-c3ccccn3)nc2c1 | inconclusive: 25.1 µM [inhibitor, partial curve, poor fit] | – |
| O=C(Nc1nnc(-c2ccc(F)cc2)o1)c1cc(Cl)sc1Cl | inconclusive: 15.8 µM [inhibitor, partial curve] | – |
